Measured values reported in publication PMC6397201, “Purification of cross-linked RNA-protein complexes by phenol-toluol extraction” (Nature Communications, 2019).

Target: the molecule itself
Assay: SDS-PAGE and western blot (oligomer that resists SDS-PAGE); Salmonella Typhimurium SL1344 Hfq::x3FLAG, with or without UV 254 nm, Hot-PTex at 65 °C, RNase treatment; anti-FLAG western blot

B1: Hfq protein, chromosomally FLAG-tagged (Salmonella Typhimurium SL1344 Hfq::x3FLAG) (natural protein)
chain: not shown
notes: printed as a 17-kDa protein that forms a homo-hexamer; Cells were UV-irradiated (254 nm), so residual cross-linked RNA fragments may be on the protein; also called Hfq-FLAG; source: endogenous locus, chromosomally FLAG-tagged, Salmonella Typhimurium SL1344; whole cells and Hot-PTex fraction
stoichiometry N: 6
